Laboratory results taken from publication PMC5520057, “Modulation of nongenomic activation of PI3K signalling by tetramerization of N-terminally-cleaved RXRα” (Nature Communications, 2017).
Results are given in words; binding and its absence hold for the method and conditions named. Binding seen in cells or lysates may run through a third protein. Some entries that bind do so weakly or less than the wild type.

Amino acid sequences for entries named in this document (tags omitted). A change or cut given only in a name is not applied to a line headed by its entry. Residues count along the entry.
UniProt P27986: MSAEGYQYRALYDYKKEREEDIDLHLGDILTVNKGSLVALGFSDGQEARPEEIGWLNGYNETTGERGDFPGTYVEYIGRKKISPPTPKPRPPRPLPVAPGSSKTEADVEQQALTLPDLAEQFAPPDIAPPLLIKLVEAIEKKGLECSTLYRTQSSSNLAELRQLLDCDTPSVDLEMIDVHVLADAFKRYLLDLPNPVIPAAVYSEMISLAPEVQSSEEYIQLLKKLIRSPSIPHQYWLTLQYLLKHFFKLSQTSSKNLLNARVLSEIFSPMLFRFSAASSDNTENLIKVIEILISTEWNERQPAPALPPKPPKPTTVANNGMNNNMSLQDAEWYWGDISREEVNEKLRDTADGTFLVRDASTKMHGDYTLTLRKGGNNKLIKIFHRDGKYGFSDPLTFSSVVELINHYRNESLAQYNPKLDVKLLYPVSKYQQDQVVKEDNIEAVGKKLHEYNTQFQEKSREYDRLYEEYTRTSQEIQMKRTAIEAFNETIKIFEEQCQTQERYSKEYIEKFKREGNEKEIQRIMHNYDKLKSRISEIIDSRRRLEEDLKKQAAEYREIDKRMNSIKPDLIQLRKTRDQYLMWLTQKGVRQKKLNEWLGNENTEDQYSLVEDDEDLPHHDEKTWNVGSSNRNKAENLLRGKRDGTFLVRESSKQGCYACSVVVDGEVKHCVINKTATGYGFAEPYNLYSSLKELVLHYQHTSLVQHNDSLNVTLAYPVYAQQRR
HA-p85α-BCR: residues 105-319 of P27986

Key:
Myc-tRXRα (human) [1] = target: Myc-tRXRα (human) (UniProt P19793); experiment: co-IP; transfected cells (HEK293T; HepG2 for Fig. 3e; A549 for Fig. 4h), with or without 9-cis-RA (10^-7 M), TNFα (10 ng/ml) or K-80003 (5 x 10^-6 M); lysis in 20 mM Tris pH 7.5, 150 mM NaCl, 1% Triton X-100; antibody 12 h at 4 °C, protein A-Sepharose, immunoblot
Myc-tRXRα/F313A (human) = Myc-tRXRα/F313A (human) (UniProt P19793); experiment: as above
Myc-tRXRα/R316E (human) = Myc-tRXRα/R316E (human) (UniProt P19793); experiment: as above
HA-p85α-BCR = HA-p85α-BCR (UniProt P27986); experiment: as above
Myc-tRXRα (human) [2] = target: Myc-tRXRα (human) (UniProt P19793); experiment: cross-linking; cells (HepG2, HEK293T, MCF-7) transfected for 24 h, treated with 9-cis-RA (10^-7 M) and/or K-80003 (5 x 10^-6 M) for 6 h; lysates or fractions incubated with 1 mM BS3, SDS-PAGE and western blotting

Molecule | binding (Myc-tRXRα (human) [1]) | binding (Myc-tRXRα/F313A (human)) | binding (Myc-tRXRα/R316E (human)) | binding (HA-p85α-BCR) | binding (Myc-tRXRα (human) [2])
HA-p85α (from UniProt P27986 1-724) | binds | binds | no binding | – | –
Myc-tRXRα (domain or fragment, human, UniProt P19793 81-462, looked up, retinoid X receptor alpha lacking the N-terminal 80 amino acids (deletion of 60 plus an additional 20 amino acids); also called truncated RXRα; N-terminally-cleaved RXRα; source: HEK293T, HepG2, transfected, in lysate) TTPTLGFSTGSPQLSSPMNPVSSSEDIKPPLGLNGVLKVPAHPSGNMASFTKHICAICGDRSSGKHYGVYSCEGCKGFFKRTVRKDLTYTCRDNKDCLIDKRQRNRCQYCRYQKCLAMGMKREAVQEERQRGKDRNENEVESTSSANEDMPVERILEAELAVEPKTETYVEANMGLNPSSPNDPVTNICQAADKQLFTLVEWAKRIPHFSELPLDDQVILLRAGWNELLIASFSHRSIAVKDGILLATGLHVHRNSAHSAGVGAIFDRVLTELVSKMRDMQMDKTELGCLRAIVLFNPDSKGLSNPAEVEALREKVYASLEAYCKHKYPEQPGRFAKLLLRLPALRSIGLKCLEHLFFFKLIGDTPIDTFLMEMLEAPHQMT | – | – | – | binds | binds
